Source: PubChem BioAssay AID1347417 (National Center for Advancing Translational Sciences (NCATS), 2020)
Out of some 120,000 compounds screened, about 5,300 (4.4%) were called active. Inconclusive results, whose numbers are uncertain, are shown with a selection of clear calls. Calls come from the whole dose curve; as a rule, active = well fitted inhibition curve with a large enough effect; inconclusive = small, poorly fitted or top-dose-only effect; inactive = no such curve, though single readings can be large or run the other way. Potencies beside an inconclusive call are fits to weak or partial responses and may not hold up.

assay: qHTS Primary assay for Inhibitors of Plasmodium falciparum Dd2 growth in vitro; note: nearly all actives have a fitted effect of over 65% in size;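 for activity, negative = inhibition: plate controls were DMSO vehicle for no effect and reference drug for full effect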; settings: P. falciparum Dd2 growth, SYBR Green, 72 h; activity, negative = inhibition: at 28.9 µM (top of the series) unless noted; series mostly up to 28.9 µM
How it was run: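 Infected erythrocytes (Dd2, 0.3% parasitemia, 2.5% hematocrit final) are added to compound in RPMI-1640/Albumax II medium, grown 72 h at 37C in low oxygen, then lysed with saponin/Triton-X containing SYBR Green and read by fluorescence.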
Potency is the fitted concentration of half-maximal effect; tags give direction and shape of the fitted curve.

SMILES | Potency | activity, negative = inhibition
Cc1oc2ncn(CC(C)C)c(=O)c2c1C(=O)NCCCN1CCC(C)CC1 | inconclusive: 0.501 µM [inhibitor, full curve] | –
CNC(=O)[C@H]1C[C@H](Oc2ccccc2)CN1C(=O)Nc1ccc2c(c1)OCCO2 | inactive | –
CNC(=O)[C@@H]1CN(Cc2cc(C(F)(F)F)ccc2Cl)C[C@H]1CO | inconclusive: 0.708 µM [inhibitor, full curve, poor fit] | –
Cc1ccc(NC(=O)CN2C(=O)CCc3cc(S(=O)(=O)N4CCCCC4)ccc32)cc1C | inconclusive: 14.1 µM [inhibitor, single point] | –
Cc1cc(C)c(C)c(S(=O)(=O)N2CCn3c(nn(CC4CC4)c3=O)C2)c1C | inconclusive: 14.1 µM [inhibitor, partial curve, poor fit] | –
Cc1cc(C)cc(-n2c(C)nc3cc(C(=O)NCc4ccccc4Cl)ccc32)c1 | inconclusive: 17.8 µM [inhibitor, partial curve, poor fit] | –
CC1(C(=O)Nc2ccc(F)cc2)CN(Cc2ccccc2)Cc2ccc(N3CCOCC3)nc21 (centres undefined) | active: 6.31 µM | –
CCC(CC)c1cc([C@H]2CN3CC[C@H]2C[C@@H]3CNC(=O)CSCC(=O)O)nc(-c2ccncc2)n1 | inconclusive: 3.98 µM [inhibitor, partial curve, poor fit] | –
Cc1ccc(OCC(=O)N(Cc2ccco2)Cc2ccco2)cc1C | inconclusive: 17.8 µM [inhibitor, single point] | –
CCn1cnnc1-c1nn(C)c2c1CN(C(=O)CCC1CCCC1)CC2 | inconclusive: 12.6 µM [inhibitor, partial curve, poor fit] | –
Cc1cc(C)c(CNC(=O)c2nc(-c3cccc(CO)c3)cc3c2ccn3C(C)C)c(=O)[nH]1 | inconclusive: 10 µM [inhibitor, single point] | –
CCOc1ccc(NC(=O)N(Cc2c[nH]c3ccccc23)C2CCCCCC2)cc1 | inconclusive: 8.91 µM [inhibitor, partial curve] | –
Cc1cc(C(=O)N2CCC(C(=O)N3CCCCCCNC(=O)CC3)CC2)n(C)n1 | inactive | –
O=C(Nc1ccccc1F)N1CC(c2nnc(-c3ccncc3)o2)C2(CCOCC2)C1 (centres undefined) | inactive | –
COc1ccc(C2C(C(=O)Nc3ccccc3OC)=C(C)Nc3c(C(=O)Nc4ccccc4)cnn32)c(OC)c1 (centres undefined) | inconclusive: 10 µM [inhibitor, single point] | –
CC(C)CCN1CCC(N2CCN(S(=O)(=O)c3ccc4c(c3)CCC4)CC2)C1=O (centres undefined) | active: 7.08 µM | –
CCCCCC(=O)Nc1nc2c(s1)C[C@@H]1[C@](C)(CO)[C@H](O)CC[C@@]1(C)[C@@H]2CC(=O)NCCc1ccc(OC)c(OC)c1 | inconclusive: 12.6 µM [inhibitor, single point] | –
CSc1ccc(C2c3c(oc4cc(C)cc(C)c4c3=O)C(=O)N2CCO)cc1 (centres undefined) | inconclusive: 10 µM [inhibitor, single point] | –
CCOc1ccc(C(=O)N2CCC3(CCCNC3=O)C2)cc1Cl (centres undefined) | inactive | –
COc1cc(-c2nc3c([nH]2)CC(c2ccccc2OC)CNC3=O)ccc1O (centres undefined) | inconclusive: 11.2 µM [inhibitor, partial curve, poor fit] | –
O=C(CC1NC(=O)NC1=O)NCc1cccnc1Oc1ccccc1F (centres undefined) | inactive | –
COC(=O)CNC(c1ccccc1)c1cc(Br)ccc1NC(=O)c1ccccc1 (centres undefined) | inconclusive: 17.8 µM [inhibitor, single point] | –

SMILES | Potency | activity, negative = inhibition
C[C@]1(CO)[C@H]2Cc3sc(NC(=O)c4c(F)cccc4F)nc3[C@@H](CC(=O)NCc3cccnc3)[C@]2(C)CC[C@H]1O | inconclusive: 2.51 µM [inhibitor, full curve, poor fit] | –
O=[S+]([O-])(c1cccc(C(F)(F)F)c1)N1CCC2(CC(c3cccc(C(F)(F)F)c3)=NO2)C1 (centres undefined) | inconclusive: 12.6 µM [inhibitor, partial curve, poor fit] | –
COc1cccc(N2CC(C(=O)NCc3cccc(Cl)c3)NC2=O)c1 (centres undefined) | inactive | –
Cn1ccnc1CN1C(=O)CO[C@H]2CN(C(=O)NCc3ccccc3)C[C@H]21 | inactive | –
CCN(CCOC)Cc1cn(-c2ccc(F)cc2F)nc1-c1ccccc1C | inconclusive: 5.62 µM [inhibitor, partial curve, poor fit] | –
COC(=O)CNC(=O)c1nc(-c2ccc(Cl)cc2)c2ccccn12 | inactive | –
CCOC(=O)c1cccc(NC(=O)c2cc(S(=O)(=O)N3CCCC(C)C3)cn2C)c1 (centres undefined) | inconclusive: 17.8 µM [inhibitor, single point] | –
O=C(C[C@@H]1CCNC[C@@H]1Cc1cc(-c2ccc(F)cc2)on1)Nc1ccccc1 | inconclusive: 4.47 µM [inhibitor, partial curve, poor fit] | –
CCOc1ccc(Nc2cc(C)nc3nc(Cc4ccc(Cl)cc4)nn23)cc1 | inconclusive: 12.6 µM [inhibitor, single point] | –
Cc1ccc(CN2C[C@@H]3C(=O)N(CCc4ccccc4)C(=O)[C@@H]3C2)c(C)c1 | inconclusive: 17.8 µM [inhibitor, single point] | –
Cc1ccc(-n2nc3c(N4CCC(C(=O)NC(C)c5ccccc5)CC4)nnc(C)c3c2C)cc1 (centres undefined) | active: 10 µM | –
Cc1cnc(CCNS(=O)(=O)Cc2ccccc2F)n1C(C)C | inconclusive: 2 µM [inhibitor, partial curve, poor fit] | –
COc1ccccc1N1CCN(C(=O)c2c(C)oc3ncn(CC(C)C)c(=O)c23)CC1 | inactive | –
Cc1ccc(CCNC(=O)C2CCN(c3cc(C(F)(F)F)ncn3)CC2)cc1 | inconclusive: 4.47 µM [inhibitor, single point] | –
COc1ccc(CCNC(=O)c2cc3c(s2)-c2ccccc2OC3)cc1OC | inconclusive: 4.47 µM [inhibitor, partial curve, poor fit] | –
CCn1nc(C(=O)N2C[C@@H](CN3CCN(C)CC3)[C@@H](CO)C2)cc1C | inactive | –
COc1ccc(-c2noc([C@@H]3CCCN3C(=O)Cc3cccc(C)c3)n2)cc1 | inconclusive: 3.98 µM [inhibitor, partial curve, poor fit] | –
CCN(CC)Cc1nc(C2(O)CCN(Cc3ccc(C(F)(F)F)cc3)CC2)cs1 | active: 11.2 µM | –
Cc1ccc(C)c(-c2cc3c(=O)n(CCNC(=O)c4ccccc4)ccn3n2)c1 | inconclusive: 3.98 µM [inhibitor, single point] | –
CC(=O)N1CCc2sc(C(=O)NC3CCN(Cc4ccccc4)CC3)cc2C1 | inconclusive: 4.47 µM [inhibitor, full curve, poor fit] | –
COCCn1cnc2ccc(Nc3ccc(C(F)(F)F)cc3)nc2c1=O | inconclusive: 0.891 µM [inhibitor, full curve] | –
c1ccc(-c2cccc(-n3ccnc3-c3cc4n(n3)CCCNC4)c2)nc1 | inactive | –

SMILES | Potency | activity, negative = inhibition
Cc1ccc2c(n1)N(C)[C@H](CO)CCN(C1Cc3ccccc3C1)C2 | inconclusive: 2.82 µM [inhibitor, single point] | –
Cc1ccc(NC(=O)CSc2nc3ccccc3c3nc(CCc4c(C)n[nH]c4C)nn23)c(C)c1 | inconclusive: 11.2 µM [inhibitor, single point] | –
O=C(c1ccccc1F)N1CCn2c(nnc2-c2cccnc2)C1 | inactive | –
CN1C[C@@H](NS(=O)(=O)c2ccc(Cl)cc2)C[C@H]1c1nc(-c2ccncc2)no1 | inactive | –
Cc1nc([C@H]2CCN(Cc3cccc(C#N)c3)C[C@H]2NC(=O)C2CC2)n[nH]1 | inactive | –
Cc1ccc2c(c1)c(=O)c(C(=O)c1ccc3c(c1)OCO3)cn2Cc1cccc(F)c1 | inconclusive: 12.6 µM [inhibitor, single point] | –
COCCNc1oc(-c2ccc(COc3ccc(OC)cc3)o2)nc1C#N | – | inconclusive: -63.5% [inhibitor] [at 0.594 µM]
Cc1cc(C(F)(F)F)nn1CC(=O)N1CCCC(c2[nH]ccc2C(N)=O)C1 (centres undefined) | inactive | –
CCOC(=O)c1cc(-c2ccccc2)n(CC(=O)NC2CCC(C)CC2)c1C (centres undefined) | inconclusive: 12.6 µM [inhibitor, single point] | –
CCN1CCN(c2ccc(-c3cccc(N)c3)nn2)CC1 | inactive | –
O=C1CCN(C(=O)C2CCCC2)CCCC(c2nc(-c3ccccc3)no2)CCN1 (centres undefined) | inactive | –
O=C(Nc1cccc(C(F)(F)F)c1)c1nc2c(o1)CCN(Cc1ccc(F)cc1)CC2 | inconclusive: 10 µM [inhibitor, partial curve] | –
COc1cccc(NC(=O)c2sc3nc4n(c(=O)c3c2C)CCC4)c1 | inconclusive: 14.1 µM [inhibitor, partial curve, poor fit] | –
CCN1CCN(C(=O)C2CCc3ncc(-c4ccc(F)cc4)n3C2)CC1 (centres undefined) | inconclusive: 17.8 µM [inhibitor, single point] | –
O=C(COc1ccccc1)N1CCC(O)(c2csc(CN3CCc4ccccc4C3)n2)CC1 | inactive | –
Cc1nn(C)c(C)c1S(=O)(=O)N1CCC(c2noc(-c3ccccc3)n2)C1 (centres undefined) | – | inactive: 8.68% [at 5.79 µM]
O=CN1CCC(n2cnc3cccnc32)CC1 | inactive | –
Cc1nc2c(c(-c3ccc(O)cc3)n1)CN(C(=O)Nc1ccccc1)CCC2 | inconclusive: 11.2 µM [inhibitor, single point] | –
CC(C)C(=O)N1CCC(N2C(=O)C3(CCCCC3)C2c2ccncc2)CC1 (centres undefined) | inconclusive: 12.6 µM [inhibitor, single point] | –
COC1CN(c2cccc(F)c2)C12CCN(C(=O)NCCc1ccccc1)CC2 (centres undefined) | inconclusive: 8.91 µM [inhibitor, single point] | –
